The text below walks through data of the antibiotic and cytotoxicity screens of Wong et al. (2023).

One experiment relates to HSkMC. Description: cytotoxicity call (relative viability < 0.9). The conditions noted are these: 10 µM.
The subject of another experiment is HepG2. As to the kind of experiment: cytotoxicity call (relative viability < 0.9). The following applies: 10 µM.
The next experiment deals with S. aureus RN4220. As to the kind of experiment: growth inhibition call (relative growth <= 0.2). The conditions noted are these: 50 µM.

SMILES strings stand for the structures. This is one part of the list.

In the case of `COc1ccc([Si](C)(C)[C@H]2[C@H](CC(=O)N(CCO)Cc3ccccc3)O[C@@]3(C(=O)N(Cc4ccc(N5C(=O)c6cccc7cccc5c67)cc4)c4ccccc43)[C@@H]2C)cc1`, the cytotoxicity call in the experiment on HSkMC is “inactive”. The cytotoxicity call with HepG2 was “active”. Besides, the growth inhibition call in the experiment on S. aureus RN4220 is “inactive”.

As for `C[C@@H]1CN([C@H](C)CO)S(=O)(=O)c2ccc(Br)cc2O[C@H]1CN(C)S(=O)(=O)c1ccc(F)cc1`, the cytotoxicity call with HSkMC and in the experiment with HepG2 was “inactive” each time. Moreover, the growth inhibition call with S. aureus RN4220 was “inactive”.

Consider `C[C@H](CO)N1C[C@H](C)[C@H](CN(C)C(=O)Nc2ccccc2)Oc2ccc(NS(C)(=O)=O)cc2C1=O`, for which the cytotoxicity call in the experiment on HSkMC and in the experiment on HepG2 was “inactive” in each case. In the experiment on S. aureus RN4220, the growth inhibition call is “inactive”.

Turning to `C[C@H](CO)N1C[C@H](C)[C@H](CN(C)S(=O)(=O)c2cn(C)cn2)Oc2c(NC(=O)CCCCCC(=O)Nc3ccccc3N)cccc2C1=O`, the cytotoxicity call with HSkMC and with HepG2 was “inactive” each time. The growth inhibition call in the experiment on S. aureus RN4220 is “inactive”.

Take `CC(C)NC(=O)N(C)C[C@@H]1Oc2ccc(NC(=O)C3CCCCC3)cc2CC(=O)N([C@H](C)CO)C[C@@H]1C`: the cytotoxicity call with HSkMC and with HepG2 was “inactive” each time. Also, the growth inhibition call in the experiment with S. aureus RN4220 was “inactive”.

As for `COc1ccc(S(=O)(=O)Nc2cccc3c2O[C@H](CN(C)CC2CC2)[C@H](C)CN([C@@H](C)CO)C3=O)cc1`, the cytotoxicity call in the experiment on HSkMC and with HepG2 was “inactive” each time. Moreover, in the experiment with S. aureus RN4220, the growth inhibition call was “inactive”.

As for `C[C@@H]1CN([C@@H](C)CO)S(=O)(=O)c2ccc(-c3cncnc3)cc2O[C@@H]1CN(C)C(=O)NC1CCCC1`, the cytotoxicity call with HSkMC and in the experiment on HepG2 was “inactive” in each case. Also, in the experiment with S. aureus RN4220, the growth inhibition call is “inactive”.

Turning to `NC[C@H](O)c1ccc(O)c(O)c1`, the cytotoxicity call in the experiment with HSkMC was “inactive”. Moreover, the cytotoxicity call in the experiment with HepG2 was “active”. Further, in the experiment with S. aureus RN4220, the growth inhibition call was “inactive”.

For `OCCN(CCO)c1nc(N2CCCCC2)c2nc(N(CCO)CCO)nc(N3CCCCC3)c2n1`, the cytotoxicity call with HSkMC and in the experiment with HepG2 was “inactive” throughout. In addition, in the experiment on S. aureus RN4220, the growth inhibition call is “inactive”.

As for `Cc1cc(O)cc(=O)o1`, the cytotoxicity call in the experiment with HSkMC and in the experiment with HepG2 was “inactive” in each case. Further, in the experiment with S. aureus RN4220, the growth inhibition call is “inactive”.

As to `O=C(C[C@@H]1C=C[C@H](NC(=O)CN2CCOCC2)[C@H](CO)O1)NC1CCC1`, the cytotoxicity call in the experiment with HSkMC and in the experiment with HepG2 was “inactive” each time. Also, the growth inhibition call with S. aureus RN4220 is “inactive”.

As to `CS(=O)(=O)CC(=O)N1C[C@H]2COC[C@@]2(COc2ccccn2)C1`, the cytotoxicity call with HSkMC and with HepG2 was “inactive” each time. Further, the growth inhibition call in the experiment with S. aureus RN4220 was “inactive”.

`Cc1ccc(S(=O)(=O)N2C[C@@H](O)COC[C@H]3O[C@H](CC(=O)NCc4ccccc4Cl)CC[C@@H]32)cc1`: the cytotoxicity call in the experiment on HSkMC and in the experiment on HepG2 was “inactive” in each case. Also, the growth inhibition call in the experiment with S. aureus RN4220 is “inactive”.

Turning to `C[C@@H]1CN([C@@H](C)CO)C(=O)c2cccc(NS(=O)(=O)c3ccccc3)c2O[C@@H]1CN(C)S(=O)(=O)c1ccc(F)cc1`, the cytotoxicity call with HSkMC and with HepG2 was “inactive” throughout. Besides, the growth inhibition call in the experiment with S. aureus RN4220 is “inactive”.

`C[C@@H]1CN([C@H](C)CO)C(=O)c2cc(NC(=O)Nc3ccc(C(F)(F)F)cc3)ccc2O[C@@H](C)CCCCO[C@@H]1CN(C)C(=O)Nc1cccc2ccccc12`: the cytotoxicity call with HSkMC and in the experiment on HepG2 was “inactive” throughout. The growth inhibition call in the experiment with S. aureus RN4220 is “inactive”.

`C#CCN([C@H](/C=C/C1CC1)[C@@H](O)CCn1cc(-c2ccc(C(=O)NO)s2)nn1)[C@@H](Cc1ccccc1)C(=O)OC`: the cytotoxicity call in the experiment with HSkMC and in the experiment on HepG2 was “inactive” in each case. In addition, the growth inhibition call with S. aureus RN4220 was “inactive”.

Consider `CCOC(=O)N1CCC(NS(=O)(=O)c2cccc(S(=O)(=O)[C@H]3CCS(=O)(=O)C3)c2)CC1`, for which the cytotoxicity call with HSkMC and in the experiment with HepG2 was “inactive” throughout. The growth inhibition call in the experiment on S. aureus RN4220 is “inactive”.

In the case of `C[C@H]1CN([C@@H](C)CO)C(=O)Cc2cc(NS(=O)(=O)c3ccccc3)ccc2O[C@@H]1CN(C)S(=O)(=O)c1ccc(F)cc1`, the cytotoxicity call in the experiment on HSkMC and in the experiment with HepG2 was “inactive” each time. In the experiment on S. aureus RN4220, the growth inhibition call is “inactive”.

With `O=C(NCC[C@H]1CC[C@H](NS(=O)(=O)c2cccc(F)c2)[C@H](CO)O1)C1CC1`, the cytotoxicity call in the experiment on HSkMC and in the experiment on HepG2 was “inactive” throughout. Also, the growth inhibition call in the experiment on S. aureus RN4220 was “inactive”.

Consider `Cc1cc(C(=O)Nc2cccc3c2O[C@H](CN(C)S(=O)(=O)c2ccc(F)cc2)[C@H](C)CN([C@H](C)CO)C3=O)n(C)n1`, for which the cytotoxicity call in the experiment on HSkMC and in the experiment with HepG2 was “inactive” in each case. In addition, the growth inhibition call in the experiment with S. aureus RN4220 was “inactive”.

In the case of `CN(C)C(=O)C[C@H]1CC[C@@H]2[C@@H](COc3ccc(NS(=O)(=O)c4cccc(F)c4)cc3C(=O)N2C)O1`, the cytotoxicity call in the experiment on HSkMC (human skeletal muscle cells) and in the experiment with HepG2 was “inactive” throughout. In the experiment with S. aureus RN4220, the growth inhibition call is “inactive”.

`CC(C)NC(=O)Nc1ccc2c(c1)C(=O)N([C@H](C)CO)C[C@@H](C)[C@H](CN(C)S(=O)(=O)c1ccc(Cl)cc1)O2`: the cytotoxicity call with HSkMC and in the experiment on HepG2 was “inactive” in each case. Further, the growth inhibition call with S. aureus RN4220 is “inactive”.

As for `CC(C)(C)[S@@](=O)N1Cc2cc(C(=O)N[C@@H]3CCN(Cc4ccccc4)C3)nc(-c3cccc(-c4cccnc4)c3)c2[C@H]1CCO`, the cytotoxicity call with HSkMC and in the experiment on HepG2 was “inactive” throughout. In the experiment on S. aureus RN4220, the growth inhibition call was “inactive”.

Take `CC(C)NC(=O)N(C)C[C@@H]1Oc2ccc(NS(=O)(=O)c3ccc(Cl)cc3)cc2C(=O)N([C@H](C)CO)C[C@@H]1C`: the cytotoxicity call with HSkMC and in the experiment with HepG2 was “inactive” each time. Besides, the growth inhibition call in the experiment on S. aureus RN4220 is “inactive”.

Consider `C[C@@H]1CN([C@H](C)CO)C(=O)c2cc(NC(=O)Nc3ccccc3)ccc2O[C@@H](C)CCCCO[C@@H]1CN(C)S(=O)(=O)c1ccc(Cl)cc1`, for which the cytotoxicity call with HSkMC and in the experiment with HepG2 was “inactive” throughout. Also, in the experiment with S. aureus RN4220, the growth inhibition call is “inactive”.

With `C[C@@H]1CCCCO[C@H](CN(C)C(=O)Cc2ccccc2)[C@H](C)CN([C@@H](C)CO)C(=O)c2cc(NC(=O)C3CCCCC3)ccc2O1`, the cytotoxicity call in the experiment with HSkMC and in the experiment on HepG2 was “inactive” each time. The growth inhibition call with S. aureus RN4220 was “inactive”.
